In the antibiotic and cytotoxicity screens of Wong et al. (2023):
This is one part of the list.

Columns and labels:
HSkMC = human skeletal muscle cells; assay: cytotoxicity call (relative viability < 0.9); conditions: 10 µM
HepG2 = assay: cytotoxicity call (relative viability < 0.9); conditions: 10 µM
S. aureus RN4220 = assay: growth inhibition call (relative growth <= 0.2); conditions: 50 µM

Row | SMILES | cytotoxicity call (HSkMC) | cytotoxicity call (HepG2) | growth inhibition call (S. aureus RN4220)
1 | NS(=O)(=O)c1ccc(Cl)c(S(N)(=O)=O)c1 | inactive | inactive | inactive
2 | O=C(C[C@@H]1C[C@@H]2c3cc(NS(=O)(=O)c4ccc(F)cc4)ccc3O[C@@H]2[C@@H](CO)O1)NCc1ccccn1 | inactive | inactive | inactive
3 | C[C@@H]1CN([C@H](C)CO)S(=O)(=O)c2ccc(C#Cc3ccccc3)cc2O[C@H]1CN(C)S(C)(=O)=O | inactive | inactive | inactive
4 | C[C@H](CO)N1C[C@H](C)[C@@H](CN(C)Cc2ccccc2)OCCCC[C@H](C)Oc2ccc(NC(=O)Nc3ccccc3)cc2C1=O | inactive | inactive | inactive
5 | COc1ccc([Si](C)(C)[C@H]2[C@H](CCn3cc([C@H](O)c4ccccc4)nn3)O[C@@]3(C(=O)N(Cc4cccc(N5C(=O)c6cccc7cccc5c67)c4)c4ccccc43)[C@@H]2C)cc1 | inactive | inactive | inactive
6 | Cc1ccc(-c2cnc3c(c2)C(=O)N([C@H](C)CO)C[C@H](C)[C@H](CN(C)C(=O)Cc2ccncc2)O3)cc1 | inactive | inactive | inactive
7 | C[C@H]1CCCCO[C@H](CN(C)C(=O)Nc2ccc3c(c2)OCO3)[C@@H](C)CN([C@@H](C)CO)C(=O)c2cc(NC(=O)Nc3ccc(F)cc3)ccc2O1 | inactive | inactive | inactive
8 | Cc1noc(C)c1S(=O)(=O)Nc1ccc2c(c1)C(=O)N([C@@H](C)CO)C[C@@H](C)[C@@H](CN(C)C(=O)Nc1ccc(C(F)(F)F)cc1)OCCCC[C@@H](C)O2 | inactive | inactive | inactive
9 | C#Cc1ccc([C@H]2C=C(C(=O)N3CCOCC3)O[C@@H](OCCCCOC(=O)NCCCCCC(=O)NO)C2)cc1 | inactive | inactive | inactive
10 | COCC#Cc1ccc2c(c1)O[C@H](CN(C)C(=O)c1ccccc1)[C@@H](C)CN([C@@H](C)CO)S2(=O)=O | inactive | inactive | inactive
11 | C[C@@H]1CN([C@H](C)CO)C(=O)c2cccc(NC(=O)Nc3cccc4ccccc34)c2O[C@H]1CN(C)S(=O)(=O)c1ccccc1 | inactive | inactive | inactive
12 | C[C@H](CO)N1C[C@H](C)[C@H](CN(C)C(=O)Nc2cccc3ccccc23)Oc2ccc(NC(=O)Cc3cn(C)c4ccccc34)cc2C1=O | inactive | inactive | inactive
13 | C[C@H]1CN([C@@H](C)CO)S(=O)(=O)c2ccc(C#CCN(C)C)cc2O[C@H]1CN(C)S(=O)(=O)c1cccc(F)c1 | inactive | inactive | inactive
14 | COC1CC2CCC(C)C(O)(O2)C(=O)C(=O)N2CCCCC2C(=O)OC(C(C)CC2CCC(O)C(OC)C2)CC(=O)C(C)C=C(C)C(O)C(OC)C(=O)C(C)CC(C)C=CC=CC=C1C (centres undefined) | inactive | inactive | inactive
15 | C[C@H](CO)N1C[C@H](C)[C@@H](CN(C)CC2CCCCC2)OCCCC[C@H](C)Oc2ccc(NC(=O)Cc3ccccc3)cc2C1=O | inactive | inactive | inactive
16 | C[C@H]1CN([C@@H](C)CO)C(=O)c2cc(NC(=O)CCCCCC(=O)Nc3ccccc3N)ccc2O[C@H]1CN(C)C(=O)Nc1ccccc1 | inactive | inactive | inactive
17 | C[C@H]1CN([C@@H](C)CO)S(=O)(=O)c2ccc(Br)cc2O[C@@H]1CN(C)C(=O)CCN1CCCCC1 | inactive | inactive | inactive
18 | COc1ccc(-c2cc(=O)c3c(O)cc(O[C@@H]4O[C@H](CO)[C@@H](O)[C@H](O)[C@H]4O[C@@H]4O[C@H](COC(C)=O)[C@@H](O)[C@@H](O)[C@H]4O)c(O)c3o2)cc1 | inactive | inactive | inactive
19 | C[C@@H]1CN([C@@H](C)CO)C(=O)c2cc(NC(=O)NC3CCCCC3)ccc2O[C@@H](C)CCCCO[C@H]1CN(C)Cc1ccc(Cl)c(Cl)c1 | inactive | active | inactive
20 | COc1ccccc1NC(=O)N(C)C[C@@H]1OCc2ccccc2-c2c(n(C)c3ccccc23)C(=O)N([C@@H](C)CO)C[C@H]1C | inactive | inactive | inactive
21 | C[C@@H]1CCCCO[C@@H](CN(C)S(=O)(=O)c2ccc(Cl)cc2)[C@@H](C)CN([C@H](C)CO)C(=O)c2cc(NC(=O)c3ccncc3)ccc2O1 | inactive | inactive | inactive
22 | C[C@@H]1CCCCO[C@@H](CN(C)Cc2ccncc2)[C@@H](C)CN([C@H](C)CO)C(=O)c2cc(NC(=O)Nc3ccccc3)ccc2O1 | inactive | inactive | inactive
23 | COc1ccc(S(=O)(=O)Nc2ccc3c(c2)CC(=O)N([C@H](C)CO)C[C@@H](C)[C@@H](CN(C)Cc2ccc(C(=O)O)cc2)O3)cc1 | inactive | inactive | inactive
